Laboratory results published in PubChem BioAssay AID488969 (Vanderbilt High Throughput Screening Facility, 2010).
The full ranking holds about 110,000 compounds; the median of “z-score” is about -0.1, and the highest 2% start at about 2. This is one part of the list. Calls of active or inactive are those of the source.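 Rule for the calls: active = z-score in the third read window above 3 or below -3; inactive = the rest.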

Target: Metabotropic glutamate receptor 8 (Rattus norvegicus) (UniProt P70579)
UniProt P70579, sequence (P70579 whole entry, looked up): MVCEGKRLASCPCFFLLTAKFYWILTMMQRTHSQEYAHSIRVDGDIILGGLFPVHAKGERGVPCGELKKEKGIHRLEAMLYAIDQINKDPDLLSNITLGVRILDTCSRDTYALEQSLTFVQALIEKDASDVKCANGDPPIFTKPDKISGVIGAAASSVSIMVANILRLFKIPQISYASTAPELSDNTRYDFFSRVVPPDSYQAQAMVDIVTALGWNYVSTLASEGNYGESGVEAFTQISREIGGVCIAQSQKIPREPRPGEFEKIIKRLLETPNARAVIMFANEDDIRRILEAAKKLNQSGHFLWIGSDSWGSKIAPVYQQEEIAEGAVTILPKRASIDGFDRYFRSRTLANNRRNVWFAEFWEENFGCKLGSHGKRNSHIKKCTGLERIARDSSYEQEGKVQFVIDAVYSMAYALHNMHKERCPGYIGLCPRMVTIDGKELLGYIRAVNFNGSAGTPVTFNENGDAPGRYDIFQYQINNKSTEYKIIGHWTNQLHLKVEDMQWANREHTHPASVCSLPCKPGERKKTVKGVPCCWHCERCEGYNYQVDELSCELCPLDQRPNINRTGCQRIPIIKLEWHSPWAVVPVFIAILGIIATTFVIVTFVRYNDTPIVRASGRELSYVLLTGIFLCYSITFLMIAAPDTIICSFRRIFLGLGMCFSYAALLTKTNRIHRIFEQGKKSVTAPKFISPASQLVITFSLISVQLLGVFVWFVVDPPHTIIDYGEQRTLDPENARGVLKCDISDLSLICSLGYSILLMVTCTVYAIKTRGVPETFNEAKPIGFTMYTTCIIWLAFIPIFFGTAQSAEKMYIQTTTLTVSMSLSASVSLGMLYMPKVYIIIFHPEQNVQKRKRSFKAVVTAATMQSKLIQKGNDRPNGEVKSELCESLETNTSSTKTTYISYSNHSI
Assay: mGluR8 Gi/Go-coupled signaling modulation – cell-based, rat, thallium flux, HTS, primary screen (AID 488969)
Details: HEK293 rat mGluR8, GIRK (G protein-gated inwardly rectifying potassium channel) thallium flux, FluoZin2; at 10 µM; stronger effect = higher value; submaximal glutamate (EC20) added with thallium

Compound | z-score
Cc1ccc(-c2nc3ccc(NS(=O)(=O)c4ccccc4)cc3[nH]2)o1 | 1.31
CCN(CC)C(=O)CN(c1ccc2c(c1)OCO2)S(C)(=O)=O | 2.51
COC(=O)c1cccc(S(=O)(=O)N(Cc2ccco2)Cc2cc3ccc(OC)cc3[nH]c2=O)c1 | 0.782
CN(C)CCCOc1nc2c(c(=O)n(C)c(=O)n2C)n1C | 0.128
CC(C)OCCCNC(=O)c1cccs1 | 0.37
COc1ccc(C(=O)/C(=C/c2cccs2)c2nc3ccccc3o2)cc1 | 0.351
Cc1ccc(Cn2nc(C)c(NC(=O)c3nn(C)cc3Cl)c2C)cc1 | 0.166
COc1cccc(-n2nnnc2SCC(=O)N2CCCc3ccccc32)c1 | -0.666
CC(C)c1ccc(C(C(=O)NC(C)(C)C)N(C(=O)CNC(=O)c2ccco2)c2cccnc2)cc1 (stereo not given) | -0.299
O=C(Cc1cccs1)N(Cc1ccco1)C1(C(=O)NC2CCCCC2)CCCCC1 | 1.89
O=C(NC1c2ccccc2-c2ccccc21)c1ccccc1 | -0.122
CS(=O)(=O)N(Cc1ccccc1)c1ccc(C(=O)NCC2CCCO2)cc1 (stereo not given) | 0.431
Cc1cc(N2CCN(C)CC2)nc(N2CCOCC2)n1 | 0.212
COc1ccc(C)cc1S(=O)(=O)N(CC(=O)Nc1ccc2c(c1)OCCO2)Cc1ccccc1 | 1.58
COc1ccc(Br)cc1-c1noc(-c2ccncc2)n1 | 0.0779
CC(C)Cc1nc(SCC(=O)NCc2ccccc2)n[nH]1 | -0.331
CCN(CC)c1ccc(NC(=O)CSc2nc3ccccc3c(=O)n2-c2cc(S(=O)(=O)N(C)C)ccc2C)cc1 | -0.0627
CN(c1ccccc1)S(=O)(=O)c1ccc(NC(=O)c2ccccc2)cc1 | -0.359
Cc1ccc(-n2c(SCC(=O)N3CC(=O)Nc4ccccc43)nc3ccccc3c2=O)cc1 | -0.279
CCCC1S/C(=N/N=C/c2cccs2)NC1=O (stereo not given) | -0.9
CN(C(=O)c1cc2sccc2n1C)C1CCCCC1 | -0.766
CC(=O)c1c(C)[nH]c(C(=O)OCC(=O)Nc2cc(Cl)ccc2[N+](=O)[O-])c1C | -0.444

Compound | z-score
CCC(CC)C(=O)NCCc1ccc(OC)c(OC)c1 | 0.262
O=C(CN1CCN(Cc2ccccc2)C1=O)NCc1cccs1 | -0.136
CCOC(=O)c1cccnc1SCC(=O)NCc1ccccc1 | -0.142
Cc1csc(=N)n1CC(=O)N1CCc2ccccc21 | 0.237
O=C(CCN1CCCCC1)N/N=C/c1ccc(Br)cc1 | -1.67
CCc1nnc(NC(=O)c2cccc(S(=O)(=O)N(C)c3ccccc3)c2)s1 | -1
CC(C)OC(=O)c1nn2c(C(F)(F)F)cc(-c3ccc(Br)o3)nc2c1Br | 0.469
O=C(O)CCC(=O)N1CCN(c2nc3ccccc3s2)CC1 | 0.225
NC(=O)C1CCN(C(=O)CSc2nc3ccccc3o2)CC1 | -0.000236
Cc1cccc(-c2nnn(Cc3nnc(NC(=O)c4ccccc4)s3)n2)c1 | -0.0603
CCCS(=O)(=O)N1CCCC(C(=O)N2CCOCC2)C1 (stereo not given) | -0.0605
CCOC(=O)c1c(C)[nH]c(C)c1C(=O)COC(=O)c1cc2ccccc2cc1O | -0.189
CCS(=O)(=O)N1CCC(C(=O)Nc2cccc(C(C)=O)c2)CC1 | 0.465
O=C(O)[C@@H]1CCCN1c1ncnc2sc3c(c12)CCC3 | -1.31
O=C(O)/C=C\C(=O)Nc1ccccc1C(=O)NCc1ccccc1 | 0.0517
CC(C)Oc1ccc(CCc2n[nH]c(=S)n2Cc2ccccc2)cc1 | 0.446
CCOc1ccc(N2C(=O)/C(=C/c3ccc(C)o3)N(C)C2=S)cc1 | 0.188
COc1cccc(N=Nc2c(=O)[nH]n3c(=O)cc(C)[nH]c23)c1 | -0.34
COC(=O)c1ccccc1NC(=O)CN(c1ccccc1)S(=O)(=O)N(C)C | -1.07
CS(=O)(=O)N1N=C(c2ccc(Cl)cc2)CC1c1cccs1 (stereo not given) | -0.359
CCCCOc1ccc(C(=O)OC(C)CN(C)C)cc1 (stereo not given) | 0.416
Cc1cc(Oc2ccccc2F)nc(NCc2ccccc2)n1 | -0.085

Compound | z-score
CCC(=O)Oc1c(C(=O)CC)cc2c(C)cc(=O)oc2c1C | -0.0867
CN(C)C(=S)Nc1ccc([N+](=O)[O-])cc1 | -0.23
COc1ccc(NC(=O)CCN2CCN(S(=O)(=O)c3ccc(C(C)C)cc3)CC2)cc1 | -0.149
CCOc1ccccc1NC(=O)C1CCCN(S(=O)(=O)c2ccc(OC)c(C)c2)C1 (stereo not given) | -0.663
CC(Oc1ccc(-c2ccccc2)c(F)c1)c1ccn(S(=O)(=O)c2ccc(Br)cc2)n1 (stereo not given) | -0.236
CCC(CO)Nc1nc(CN2CCCCC2)nc2scc(-c3ccccc3)c12 (stereo not given) | -0.267
COC(=O)c1sccc1NC(=O)CSc1ccccc1NS(=O)(=O)c1ccccc1Cl | active: 3.17
CNC(=S)N(CCc1cccc(C)c1)Cc1cc2cc(OC)c(OC)cc2[nH]c1=O | -0.114
O=C(CN1CCN(c2ccccn2)CC1)N1c2ccccc2CCc2ccccc21 | 0.015
CCC1(C)Cc2c(sc3nc(SC)nc(N)c23)CO1 (stereo not given) | 0.264
Cc1ccc(-c2noc(C3CCN(S(C)(=O)=O)CC3)n2)o1 | -0.118
O=c1c2cnn(-c3ccccc3)c2nc(-c2cccs2)n1-c1ccc(Cl)cc1 | -0.161
O=C(CCc1ccccc1)NCCSCc1c(F)cccc1Cl | -0.181
Nc1nc(-c2ccco2)c(-c2ccco2)s1 | 1.04
CCOC(=O)c1c(NC(NC(C)=O)C(Cl)(Cl)Cl)sc(C(C)=O)c1C (stereo not given) | -0.687
COc1ccc(-c2cc(C(=O)Nc3cccc(C(C)=O)c3)no2)cc1 | -0.222
Cc1ccc(S(=O)(=O)NN=C2CCC(C(C)(C)C)CC2)cc1[N+](=O)[O-] (stereo not given) | -0.696
Cc1cc(C)c(NC(=O)C2c3ccccc3Oc3ccccc32)c(C)c1 | 0.361
CC(C)(C)N=Cc1cc(-c2ccccc2)sc1O | -0.023
COCCCNC(=O)Cn1cc(C(=O)C2CC2)c2ccccc21 | -0.146
O=C(C1CCCN(S(=O)(=O)c2cnc[nH]2)C1)N1CCN(c2ccc(Cl)cc2)CC1 (stereo not given) | -0.154
O=C(Nc1cccc2c1CCCC2)C1CCCN(S(=O)(=O)c2cccc3nonc23)C1 (stereo not given) | 0.0516

Compound | z-score
COc1ccc(Nc2ccc(S(=O)(=O)N3CCCCC3)cc2[N+](=O)[O-])cc1Cl | 0.547
Cc1ccc(/C=C2/SC(=S)N(CC(=O)Nc3ncc(Cc4ccc(C)cc4)s3)C2=O)cc1 | -0.0148
CCC(=O)Nc1ccc(C(=O)OCC(=O)c2ccc(C)c([N+](=O)[O-])c2)cc1 | 0.0768
Nc1ccc(Cc2ccc(N)c(C(=O)O)c2)cc1C(=O)O | -0.243
O=S(=O)(c1ccccc1)N1CCN(S(=O)(=O)c2ccccc2)C1 | -0.0762
COc1ccc(-c2nnc(SCCc3ccccc3)n2N)cc1 | 0.0423
Cc1cc(Nc2ncc(Cl)cc2Cl)n[nH]1 | 0.428
O=C(COC(=O)CNC(=O)C12CC3CC(CC(C3)C1)C2)NC1CCS(=O)(=O)C1 (stereo not given) | 0.0567
O=C(Cn1cc2c(n1)CCCCC2)Nc1c(F)c(F)cc(F)c1F | 0.762
ClC(Cl)(c1nnnn1-c1ccccc1)c1nnnn1-c1ccccc1 | -0.205
CCOc1ccc(-c2cc(CCCC(=O)N3CCN(c4ccc(OC)cc4)CC3)no2)cc1 | 0.578
Cc1ccc(NC(=O)CN(C)S(=O)(=O)c2cccc3nsnc23)cc1C | -0.325
COc1ccc(NC(=O)c2ccc(COc3ccccc3OC)o2)cc1OC | -0.19
Fc1ccccc1-c1nc(-c2ccccc2)no1 | -0.104
CCOc1cc(NC(=S)NCc2ccco2)c(OCC)cc1NC(=O)C1CC1 | 0.717
COC(=O)c1ccccc1OCC(=O)NC1CCCCC1 | -0.229
CCCNC(=O)CCc1c(C)nc2nc(-c3cc(OC)cc(OC)c3)nn2c1C | 0.6
COc1cccc(OCC(=O)N(Cc2nc(-c3ccc(Cl)cc3)no2)C(C)C)c1 | 0.0492
O=S(=O)(c1cccc2nsnc12)N1CCc2ccccc2C1 | -0.543
N#CC1=C(N)N(c2ccccc2)C(=O)C1 | -0.0445
Cc1nc(-c2coc3cc(O)c(C)cc3c2=O)cs1 | -0.557
CCOc1ccc(N=C2NC(=O)S/C2=C\c2ccc(OC)cc2)cc1 | -0.262

Compound | z-score
CS(=O)(=O)NC1CCN(Cc2ccccc2)CC1 | -0.106
CC1=C(Sc2ccccn2)C(=O)NC(C)(C)C1 | 0.338
COc1ccc(NC(=O)c2ccc(COCC(F)(F)F)cc2)cc1OC | -0.575
CCc1ccc(C(C(=O)NC2CCCC2)N(C(=O)/C=C/C(=O)Nc2cc(C)on2)c2ccccc2C)cc1 (stereo not given) | -1.04
COc1c(C)cc(Br)cc1C(=O)O | -0.248
CCOC(=O)/C(=N\Nc1ccccc1)S(=O)(=O)c1ccccc1 | -0.623
O=C(NCCCn1ccnc1)c1cc(-c2cccs2)on1 | -0.401
COc1ccc(CCNC(=O)CSc2nc3c(c(=O)n(C)c(=O)n3C)n2C(C)C)cc1OC | -0.0176
CCOC(=O)Cn1c2c(c(=N)c3c1CCC3)CCC2 | 0.248
O=C(Cc1ccc(S(=O)(=O)N2CCCC2)s1)NC1CCCCCC1 | -0.143
COc1ccc(Nc2ncnc3sc(-c4ccccc4)cc23)cc1OC | -0.275
COc1ccccc1OCc1ccc(C(=O)NCc2cccnc2)o1 | 0.168
CCOC(=O)N/N=C(\C)c1ccc(OC(F)F)cc1OC(F)F | -0.0776
COc1ccccc1-c1c(-c2ccc(OCC(=O)NN)cc2O)n[nH]c1C(F)(F)F | -0.126
COc1ccccc1NS(=O)(=O)c1cccc(C(=O)OCC(=O)Nc2cc(C)on2)c1 | -0.0829
CN(C)c1nc(NCc2ccccc2)nc(SCC(=O)Nc2ccccc2)n1 | -0.0683
N#C/C(=C(/O)COC(=O)CCC1CCCCC1)c1nc2ccccc2[nH]1 | 0.153
Cc1cc([N+](=O)[O-])nn1CC(=O)N1N=C(C(F)F)CC1(O)C(F)F (stereo not given) | -0.152
Cc1cc(=O)[nH]c(SCC(=O)NCc2ccco2)n1 | -0.0757
Cc1nn(-c2ccccc2)c2nc3c(cc12)C(=O)CCC3 | 0.172
Cc1cc(NC(=O)Cn2nc(C(F)(F)F)c3c2CCCC3)no1 | 0.876
CC1CN(C(=O)c2ccccc2Sc2ccccc2C#N)CC(C)O1 (stereo not given) | 0.335
